Tests used:
[1] = target: antithrombin III (plasma purified human AT-III, Molecular Innovations); assay: ratio of K0.5 to recombinant WT FIXa (Catalyst Biosciences WT); AT-III/UFH inhibition assay
[2] = target: Factor X (FX), active site titrated and DFP/EGR-cmk treated zymogen, P00742
[3] = target: plasma purified human AT-III (antithrombin III) in complex with unfractionated heparin; assay: ratio of K0.5 to Catalyst Biosciences WT FIXa; AT-III/UFH inhibition assay
[4] = target: plasma purified human antithrombin III (AT-III), in complex with unfractionated heparin (UFH); assay: same assay; K0.5 ratio to Catalyst Biosciences WT FIXa
[5] = target: plasma purified human AT-III (antithrombin III)
[6] = target: plasma purified human AT-III (antithrombin III), in complex with full-length unfractionated heparin

Protein | K0.5-mut/K0.5-wt [1] | % of WT kcat/KM (Factor X (FX), P00742) | kcat (Factor X (FX), P00742) | kcat/KM (Factor X (FX), P00742) | KM [2] | KM (Factor X, P00742) | K0.5-mut/K0.5-wt [3] | K0.5-mut/K0.5-wt [4] | K0.5 [5] | K0.5-mut/K0.5-wt [5] | % of WT kcat/KM (Factor X, P00742) | kcat/KM (Factor X, P00742) | K0.5-mut/K0.5-wt [6]
FIXa D85N/D203N/F205T (protein) chain 1: YNSGKLEEFVQGNLERECMEEKCSFEEAREVFENTERTTEFWKQYVDGDQCESNPCLNGGSCKDDINSYECWCPFGFEGKNCELNVTCNIKNGRCEQFCKNSADNKVVCSCTEGYRLAENQKSCEPAVPFPCGRVSVSQTSKLTR chain 2: [no letters for about 250 residues with changes] | 30.3 | 64% | 1.2 s⁻¹ | 3e+07 M⁻¹ s⁻¹ | 0.0406 µM | 0.0406 µM | – | – | – | – | – | – | –
FIXa-A103N/N105S/I251S (protein) chain 1: YNSGKLEEFVQGNLERECMEEKCSFEEAREVFENTERTTEFWKQYVDGDQCESNPCLNGGSCKDDINSYECWCPFGFEGKNCELDVTCNIKNGRCEQFCKNSNDSKVVCSCTEGYRLAENQKSCEPAVPFPCGRVSVSQTSKLTR chain 2: [no letters for about 250 residues with changes] | – | 84% | 2.9 s⁻¹ | 3.9e+07 M⁻¹ s⁻¹ | – | – | 2.2 | – | – | – | – | – | –
FIXa-D85N/D203N/F205T (protein) chain 1: YNSGKLEEFVQGNLERECMEEKCSFEEAREVFENTERTTEFWKQYVDGDQCESNPCLNGGSCKDDINSYECWCPFGFEGKNCELNVTCNIKNGRCEQFCKNSADNKVVCSCTEGYRLAENQKSCEPAVPFPCGRVSVSQTSKLTR chain 2: [no letters for about 250 residues with changes] | – | 66% | 1.2 s⁻¹ | 3e+07 M⁻¹ s⁻¹ | – | – | – | 30.3 | – | – | – | – | –
FIXa-D85N/I251S (protein) chain 1: YNSGKLEEFVQGNLERECMEEKCSFEEAREVFENTERTTEFWKQYVDGDQCESNPCLNGGSCKDDINSYECWCPFGFEGKNCELNVTCNIKNGRCEQFCKNSADNKVVCSCTEGYRLAENQKSCEPAVPFPCGRVSVSQTSKLTR chain 2: [no letters for about 250 residues with changes] | – | 121% | 2.8 s⁻¹ | 5.6e+07 M⁻¹ s⁻¹ | – | – | – | 1 | – | – | – | – | –
FIXa D85N/I251S (protein) chain 1: YNSGKLEEFVQGNLERECMEEKCSFEEAREVFENTERTTEFWKQYVDGDQCESNPCLNGGSCKDDINSYECWCPFGFEGKNCELNVTCNIKNGRCEQFCKNSADNKVVCSCTEGYRLAENQKSCEPAVPFPCGRVSVSQTSKLTR chain 2: [no letters for about 250 residues with changes] | 1 | – | 2.8 s⁻¹ | – | 0.0515 µM | 0.0515 µM | – | – | 28.3 nM | 1 | 124% | 5.6e+07 M⁻¹ s⁻¹ | –
FIXa-D85N/D104N/K106S/I251S (protein) chain 1: YNSGKLEEFVQGNLERECMEEKCSFEEAREVFENTERTTEFWKQYVDGDQCESNPCLNGGSCKDDINSYECWCPFGFEGKNCELNVTCNIKNGRCEQFCKNSANNSVVCSCTEGYRLAENQKSCEPAVPFPCGRVSVSQTSKLTR chain 2: [no letters for about 250 residues] | – | 73% | 1.5 s⁻¹ | 3.3e+07 M⁻¹ s⁻¹ | – | – | 1.4 | – | – | – | – | – | –
FIXa-A103N/N105S/K228N (protein) chain 1: YNSGKLEEFVQGNLERECMEEKCSFEEAREVFENTERTTEFWKQYVDGDQCESNPCLNGGSCKDDINSYECWCPFGFEGKNCELDVTCNIKNGRCEQFCKNSNDSKVVCSCTEGYRLAENQKSCEPAVPFPCGRVSVSQTSKLTR chain 2: [no letters for about 250 residues with changes] | – | 64% | 2.1 s⁻¹ | 2.9e+07 M⁻¹ s⁻¹ | – | – | – | 2.4 | – | – | – | – | –
FIXa D85N/K228N (protein) chain 1: YNSGKLEEFVQGNLERECMEEKCSFEEAREVFENTERTTEFWKQYVDGDQCESNPCLNGGSCKDDINSYECWCPFGFEGKNCELNVTCNIKNGRCEQFCKNSADNKVVCSCTEGYRLAENQKSCEPAVPFPCGRVSVSQTSKLTR chain 2: [no letters for about 250 residues with changes] | 1.7 | 101% | 2.7 s⁻¹ | 4.6e+07 M⁻¹ s⁻¹ | 0.0601 µM | 0.0601 µM | – | – | – | – | – | – | –
FIXa D85N/D104N/K106S/I251S (protein) chain 1: YNSGKLEEFVQGNLERECMEEKCSFEEAREVFENTERTTEFWKQYVDGDQCESNPCLNGGSCKDDINSYECWCPFGFEGKNCELNVTCNIKNGRCEQFCKNSANNSVVCSCTEGYRLAENQKSCEPAVPFPCGRVSVSQTSKLTR chain 2: [no letters for about 250 residues] | – | – | 1.5 s⁻¹ | – | 0.0464 µM | 0.0464 µM | – | – | 32.1 nM | 1.1 | 75% | 3.3e+07 M⁻¹ s⁻¹ | 1.4
FIXa A103N/N105S/K228N (protein) chain 1: YNSGKLEEFVQGNLERECMEEKCSFEEAREVFENTERTTEFWKQYVDGDQCESNPCLNGGSCKDDINSYECWCPFGFEGKNCELDVTCNIKNGRCEQFCKNSNDSKVVCSCTEGYRLAENQKSCEPAVPFPCGRVSVSQTSKLTR chain 2: [no letters for about 250 residues with changes] | 2.4 | 63% | 2.1 s⁻¹ | 2.9e+07 M⁻¹ s⁻¹ | 0.0765 µM | 0.0765 µM | – | – | – | – | – | – | –
FIXa-D85N/K228N (protein) chain 1: YNSGKLEEFVQGNLERECMEEKCSFEEAREVFENTERTTEFWKQYVDGDQCESNPCLNGGSCKDDINSYECWCPFGFEGKNCELNVTCNIKNGRCEQFCKNSADNKVVCSCTEGYRLAENQKSCEPAVPFPCGRVSVSQTSKLTR chain 2: [no letters for about 250 residues with changes] | – | 104% | 2.7 s⁻¹ | 4.6e+07 M⁻¹ s⁻¹ | – | – | – | 1.7 | – | – | – | – | –
FIXa-D104N/K106S/I251S (protein) chain 1: YNSGKLEEFVQGNLERECMEEKCSFEEAREVFENTERTTEFWKQYVDGDQCESNPCLNGGSCKDDINSYECWCPFGFEGKNCELDVTCNIKNGRCEQFCKNSANNSVVCSCTEGYRLAENQKSCEPAVPFPCGRVSVSQTSKLTR chain 2: [no letters for about 250 residues with changes] | – | 64% | 2.9 s⁻¹ | 2.9e+07 M⁻¹ s⁻¹ | – | – | 1.6 | – | – | – | – | – | –

From patent publication US20210238260
